Experimental data: the RNAGym collection of RNA variant scans (doi:10.1093/nar/gkz1192)
Read counts are not given, so values of variants with three or more changes are uncertain.

B1: CPEB3 Ribozyme (parent)
chain: UAACAGGGGGCCACAGCAGAAGCGUUCACGUCGCAGCCCCUGUCAGAUUCUGGUGAAUCUGCGAAUUCUGCUGUAUAUCUC

Variants of: B1
Assay: self-cleavage, relative activity (ratio to wild type); higher = more cleavage; in vitro, sequencing
Procedure, shortened: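 Relative activity compares each variant's cleaved/total read fraction with that of the unmutated ribozyme. To get these fractions, barcoded CPEB3 ribozyme libraries from rounds of error-prone PCR were transcribed with T7 RNA polymerase for 5 hours at 37°C and then given 15 min of DNase I treatment before EDTA was added. The RNAs were reverse transcribed with template switching and sequenced on Illumina, and DNA sequencing linked barcodes to variants. A minimum of 5 reads applied, and three batches were averaged.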

Row | Variant | self-cleavage
1 | UAACUGGGGGCCACAGCCGAAGCGUUCACGUCGCAGCCCCUGCCAGAUUCCGGUGAAUCUGCGAAUUCAGCUGUAUAUCUC [A5U A18C U43C U51C U69A] | 0.29
2 | UAACUGGGGGCCACAGCGGAAGCGUUCGCGUCGCUGCCCCUGUCAGAUUCUGGUGAAUCUGCGAAUCCUGCUGUAUAUCUC [A5U A18G A28G A35U U67C] | 0.15
3 | UAACUGGGGGCCACAGCGGAAGCGUUCACGUCGCGGCCCCUGUCAGAUUCUAGUGAAGCUGCGAAUUCUGCUGUAUAUCUC [A5U A18G A35G G52A U58G] | 0.8
4 | UAACUGGGGGCCACAGCGGAAGCGUUCACGUCGCAGCCCCUGUCGGAUUCUGGUGAAUCUGUGAAUUCUGCUGUAUAUCUC [A5U A18G A45G C62U] | 0.1
5 | UAACUGGGGGCCACAGCGGAAGCGCUCACGUCGCGGCCCCUGUCAGAUUCUGGUGAAUCUGCGAAUUCUGCUGCAUAUCUC [A5U A18G U25C A35G U74C] | 0.13
6 | UAACUGGGGGCCACAGCGGAAGCGUACACUUCGCAGCCCCUGUCAGAUUCUGGUGAAUCUGCGAAUUCAGCUGUAUAUCUC [A5U A18G U26A G30U U69A] | 0.05
7 | UAACUGGGGGCCACAGCGGAAGCGUUCACGUCGCAGCCCCAGUCAGAUUCUGGUGAAUCUGCGAAUUCUGCCGUAUAUCCC [A5U A18G U41A U72C U80C] | 0.44
8 | UAACUGGGGGCCACAGCGGAAGCGUUCACGUCGCAGCCCCUGUCAGAUUCUGGUGAAUCUGCGAAUACUGCCGUAUAUCUC [A5U A18G U67A U72C] | 0.42
9 | UAACUGGGGGCCACAGCUGAGGCGUUCACGACGCAGCCCCAGUCAGAUUCUGGUGAAUCUGCGAAUUCUGCUGUAUAUCUC [A5U A18U A21G U31A U41A] | 0.34
10 | UAACUGGGGGCCACAGCUGAUGCGUUCACGUCGCAGCCCCUGUCAGUUUCUGGUGAGUCUGCGAAUUCUGCUGUAUAUCUC [A5U A18U A21U A47U A57G] | 0.06
11 | UAACUGGGGGCCACAGCUGAAGCGUUCCCGUCGCAGCCCCUGUCAGAUUCUGGUGAAUCUGCGAAUUCUGCCGCAUAUCUA [A5U A18U A28C U72C U74C C81A] | 0.27
12 | UAACUGGGGGCCACAGCUGAAGCGUUCGCGUCGCAGCCCCUGUCGGAUUCUGGUGAAUCUGCGAAUUCUGCCGUAUAUCUC [A5U A18U A28G A45G U72C] | 0.27
13 | UAACUGGGGGCCACAGCUGAAGCGUUCGCGUCGCAGCCCCCGUCAGAUUCUGGUGAGUCUGCGAAUCCUGCUGUAUAUCUC [A5U A18U A28G U41C A57G U67C] | 0.07
14 | UAACUGGGGGCCACAGCUGAAGCGUUCACGUCGCAGCCCCUGUCAGAUUCUGGUGAGUCUGCGAAUUCUGCUGUAUAUCUC [A5U A18U A57G] | 0.28
15 | UAACUGGGGGCCACAGCUGAAGCGUUCACAUAGCAGCCCCAGUCUGAUUCUGGUGAAUCUGCGAAUUCUGCUGUAUAUCUC [A5U A18U G30A C32A U41A A45U] | 0.2
16 | UAACUGGGGGCCACAGCUGAAGCGUUCACGCCGUAGCCCCAGUCAGAUUCUGGUGAAUCUGCGAAUUCUGCUGUAUAUCUC [A5U A18U U31C C34U U41A] | 0.12
17 | UAACUGGGGGCCACAGCUGAAGCGUUCACGUCGCAGCCCCUGUCAGAUUCUGGAGAGUCUGCGAAUUCUGCUGUAUAACCC [A5U A18U U54A A57G U78A U80C] | 0.29

Row | Variant | self-cleavage
18 | UAACUGGGGGCCACAGCAGGGGCGUUCGCGUUGCAGCCCCUGUCAGAUCCUGGUGAAUCUGCGAAUUCUGCUGUAUAUCUC [A5U A20G A21G A28G C32U U49C] | 0.25
19 | UAACUGGGGGCCACAGCAGGAGCGUUCACGUCGCCGCCCCUGUAAGAUUCUGGUGAAUCUGCGAAUUCUGCUGUAUAUCUC [A5U A20G A35C C44A] | 0.28
20 | UAACUGGGGGCCACAGCAGGAGCGUUCACGUCGCAGCCCCUGUCAGAUUCUGGUGAAUCUGCGAAUUCUGCUGUUUAUCUC [A5U A20G A75U] | 0.76
21 | UAACUGGGGGCCACAGCAGGAGCGUUCACGUCACAGCCCCUGUCAGAUGCUGGUGAAUCUGCGAAUUCUGCUGUAUAUCUC [A5U A20G G33A U49G] | 0.24
22 | UAACUGGGGGCCACAGCAGGAGCGUCCACGUCGCAGCCCCUGUCGGAUUCUGGUGUAUCUGCGAAUUCUGCUGUAUAUCUC [A5U A20G U26C A45G A56U] | 0.23
23 | UAACUGGGGGCCACAGCAGGAGCGUUCACGUCGCAGCCCCCGUCAGAUUCAGGUGAAUCUGCGAAUUCUGCUGUAUAUCUC [A5U A20G U41C U51A] | 1.04
24 | UAACUGGGGGCCACAGCAGGAGCGUUCACGUCGCAGCCCCCGUCAGAUUCUGGUGAAUCUGCGAAUCCUGCUGUAUUUCUC [A5U A20G U41C U67C A77U] | 0.93
25 | UAACUGGGGGCCACAGCAGGAGCGUUCACGUCGCAGCCCCUGUCAGACUCUGGUGAGUCUCCGAAUUCUGCUGUAUAACUC [A5U A20G U48C A57G G61C U78A] | 0.23
26 | UAACUGGGGGCCACAGCAGGAGCGUUCACGUCGCAGCCCCUGUCAGAUUCUGGUGAAUCCGCGAAUUCUGCUGUACAUCUC [A5U A20G U60C U76C] | 0.6
27 | UAACUGGGGGCCACAGCAGUAGCUUUCUCGUCGCAGCCCCUGUCAGAUUCUGGUGAGUCUGCGAAUUCUGCUGUAUAUCUC [A5U A20U G24U A28U A57G] | 0
28 | UAACUGGGGGCCACAGCAGUAGCGUUCACGUCGCAGCCCCUGUCAGAUUCUGGUGAAUCUGCAAAUUCUGCUGUAUAUCUC [A5U A20U G63A] | 0.46
29 | UAACUGGGGGCCACAGCAGACGCGUUCACGUCGCGGCCCCUGUCAGAUUCUGGUGAAUCAGCGACUACUGCAGUAUAUCUC [A5U A21C A35G U60A A65C U67A U72A] | 0.04
30 | UAACUGGGGGCCACAGCAGAGGCGUUCACGUCGCGUCCCCUGUCAGACUCUGGUGAAUCUGCGAAUCCUGCUGUGUAUCUC [A5U A21G A35G G36U U48C U67C A75G] | 0.05
31 | UAACUGGGGGCCACAGCAGAGGCGUUCACGUCGCAGCCCCUGUCAGUUUCUGGUGAUUCUGCGGAUUCUGCUGUAUAUCUC [A5U A21G A47U A57U A64G] | 0.15
32 | UAACUGGGGGCCACAGCAGAGGCGUUCACGUCGCAGCCCCAGUCAGAUUCUGGUGAAUCUGCGAAUACUGCUGUAUAUCUC [A5U A21G U41A U67A] | 0.23
33 | UAACUGGGGGCCACAGCAGAGGCGUUCACGUCGCAGCCCCUGACAGAUUCUGGUGAAUCUGCGAAUUCCGCCGUAUAUCUC [A5U A21G U43A U69C U72C] | 0.18
34 | UAACUGGGGGCCACAGCAGAGGCGUUCACGUCGCAGCCCCUGUCAGAUUCUGGUGAAUCUGCGAAUUCUGCUGUACAUCUC [A5U A21G U76C] | 1.15
